PubChem BioAssay AID1768 (National Center for Advancing Translational Sciences (NCATS), 2009)
Hit rate of the full screen: of about 270,000 compounds, about 620 (0.23%) were called active. The shares of active, inactive and inconclusive entries below differ from those in the screen. Calls come from the whole dose curve; as a rule, active = well fitted inhibition curve with a large enough effect in the polarisation, with a control signal flat (not every such curve was filed as active); inconclusive = small, poorly fitted or top-dose-only effect, or effect the other way, or a change in a side signal; inactive = no such curve, though single readings can be large or run the other way; the % refers to the polarisation. Where the call is inconclusive, the potency comes from a doubtful curve fit. A note “side channel” means that the fit belongs to a control or component signal, not to the main read-out.

molecular target: Menin (Homo sapiens) (UniProt O00255); experiment: qHTS Assay for Inhibitors Targeting the Menin-MLL Interaction in MLL Related Leukemias: Competition With Texas Red Labeled MLL-derived Mutant Peptide; conditions: fluorescence polarization; FP activity change, negative = inhibition: at 61.6 µM (top of the series); for FP activity change, negative = inhibition: % of control where 0% means no effect
Potency is the fitted concentration of half-maximal effect; tags give direction and shape of the fitted curve or compound fluorescence and quenching.

UniProt O00255, sequence (O00255 whole entry, looked up): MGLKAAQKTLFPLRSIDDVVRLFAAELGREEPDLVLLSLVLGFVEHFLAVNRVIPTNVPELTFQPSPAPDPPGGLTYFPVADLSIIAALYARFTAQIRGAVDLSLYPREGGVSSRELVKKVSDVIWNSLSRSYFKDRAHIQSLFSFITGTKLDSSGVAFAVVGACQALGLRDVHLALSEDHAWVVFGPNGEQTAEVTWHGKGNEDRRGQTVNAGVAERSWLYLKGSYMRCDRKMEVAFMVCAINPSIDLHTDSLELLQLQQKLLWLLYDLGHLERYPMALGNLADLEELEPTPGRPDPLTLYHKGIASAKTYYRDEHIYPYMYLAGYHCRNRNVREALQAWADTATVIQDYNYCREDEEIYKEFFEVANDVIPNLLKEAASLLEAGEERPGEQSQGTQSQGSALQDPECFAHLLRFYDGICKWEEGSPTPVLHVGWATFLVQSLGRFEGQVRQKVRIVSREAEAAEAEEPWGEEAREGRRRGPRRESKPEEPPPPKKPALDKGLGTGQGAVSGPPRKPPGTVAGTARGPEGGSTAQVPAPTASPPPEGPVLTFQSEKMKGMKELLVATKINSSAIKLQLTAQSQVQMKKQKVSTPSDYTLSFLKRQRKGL

Potency, active:
COc1ccc(-c2cc(=O)c3ccc(F)cc3[nH]2)cc1 50.1 µM

Potency, inconclusive:
CCOC(=O)c1cnc2c(cnn2CC)c1NN=C(C)C 25.1 µM [fluorescent, side channel, partial curve]
CCOC(=O)CSC1=Nc2ccccc2C2=NC(CC(=O)NCc3ccc4c(c3)OCO4)C(=O)N12 (configuration not stated) 1.26 µM [inhibitor, full curve, poor fit]
O=C(Nc1nc(-c2cccs2)cs1)c1ccco1 11.2 µM [quencher, side channel, partial curve]
Cc1cccc(N2CCN(S(=O)(=O)c3ccc4c(c3)n(C)c(=O)c(=O)n4C)CC2C)c1 (configuration not stated) 5.62 µM [inhibitor, full curve]
OCc1ccccc1OCCCN1CCC(Cc2ccccc2)CC1 28.2 µM [fluorescent, side channel, single point]
CN1CCc2c(sc3c2C(=O)NC(c2ccccn2)N3)C1 (configuration not stated) 28.2 µM [fluorescent, side channel, single point]
Cc1nc(N/N=C/c2ccc(O)cc2)c2cnn(-c3ccccc3)c2n1 14.1 µM [quencher, side channel, partial curve]
CN1CCCN(C(c2ccccc2)c2ccc(Cl)cc2)CC1 (configuration not stated) 15.8 µM [fluorescent, side channel, partial curve]
CC1=Nc2ccccc2/C1=C/c1sc(=N)n(-c2nccs2)c1O 28.2 µM [quencher, side channel, partial curve]
CC(=O)Nc1cccc(Nc2nc(-c3ccccc3)nc3ccccc23)c1 14.1 µM [quencher, side channel, partial curve]
O=C(Cc1ccccc1)NCCS(=O)c1ccc(Cl)cc1 (configuration not stated) 35.5 µM [inhibitor, single point]
COc1ccc(S(=O)(=O)n2nc(OC(=O)c3cccs3)cc2NC(=O)c2cccs2)cc1 39.8 µM [inhibitor, single point]
O=C(O)Cc1sc(N/N=C\c2ccccc2)nc1-c1ccccc1 20 µM [quencher, side channel, partial curve]
CN(C)c1ccc(-n2cccc2/C=C2/SC(=Nc3ccc(F)cc3)NC2=O)cc1 20 µM [quencher, side channel, single point]
O=C(CCCCn1c(=O)c2ccccc2n(Cc2ccccc2)c1=O)NC1CCN(Cc2ccccc2)CC1 12.6 µM [fluorescent, side channel, partial curve]
COc1ccc(Cc2nnc(NS(=O)(=O)Cc3ccccc3)s2)cc1 28.2 µM [quencher, side channel, single point]
COc1cc(OC)cc(-c2nnc(SCC(=O)Nc3ccc(C(=O)O)cc3)s2)c1 39.8 µM [inhibitor, single point]
CCCCn1c(N)c(N(CC)C(=O)CCNC(=O)NC23CC4CC(CC(C4)C2)C3)c(=O)[nH]c1=O 7.94 µM [fluorescent, side channel, full curve, poor fit]
O=C(c1cccnc1)N1CCN(c2c(Cl)cccc2[N+](=O)[O-])CC1 39.8 µM [inhibitor, single point]
Cc1ccc(NC(=O)c2cccs2)cc1NC(=O)c1ccccc1Cl 39.8 µM [fluorescent, side channel, single point]
O=C(NC(=S)Nc1ccc(NC(=O)c2cccs2)cc1)c1ccc([N+](=O)[O-])cc1 8.91 µM [quencher, side channel, partial curve]
CC(C)(C)OC(=O)NCCCC1=CC2=CC(=O)C(C)(OC(=O)c3cnc4ccccc4n3)C(=O)C2=CO1 (configuration not stated) 22.4 µM [inhibitor, single point]
COCCCNCCCCOc1ccc(OCc2ccccc2)cc1 5.62 µM [fluorescent, side channel, partial curve]
COc1cccc(NC(=O)Nc2ccccc2SC)c1 14.1 µM [quencher, side channel, partial curve]
COc1ccccc1C(c1nnnn1C(C)(C)C)N1CCCc2ccccc21 (configuration not stated) 7.08 µM [fluorescent, side channel, partial curve]
CCS(=O)(=O)C1=NSC2=NC(=O)/C(=C\c3ccc(OC(=O)c4ccco4)cc3)C(=N)N21 17.8 µM [quencher, side channel, partial curve]
O=C(Nc1ccc2c(c1)OCO2)c1ccc(NC2CC2)c([N+](=O)[O-])c1 0.631 µM [inhibitor, full curve, poor fit]
CN(C)S(=O)(=O)c1ccc(C(=O)NCc2ccc3[nH]c4c(c3c2)CCCC4)cc1 39.8 µM [quencher, side channel, single point]
Cc1cc(C)cc(NS(=O)(=O)c2ccc3oc(=O)ccc3c2)c1 31.6 µM [quencher, side channel, single point]

FP activity change, negative = inhibition, inactive:
COc1ccc(/C=C/C(=O)OCC(=O)Nc2ccc(C)cc2)cc1S(=O)(=O)N1CCOCC1 14.5%
CCOc1ccc(S(=O)(=O)Nc2c(C)n(C)n(-c3ccccc3)c2=O)cc1 -18.2%
CCOC(=O)CN1C(=O)N[C@@H](c2cccc(C(F)(F)F)c2)[C@H](C(=O)OC)[C@H]1C 2.96% [at 11.7 µM]
O=C(Cc1ccc([N+](=O)[O-])cc1)NCc1ccccc1Cl -9.6%
Cc1ccccc1NC(=O)CSc1ccsc1[N+](=O)[O-] 18.1%
COC(=O)CCCC1=CC2=C(c3ccccc3)C(=O)C(C)(OC(=O)C3CCCC3)C(=O)C2=CO1 (configuration not stated) 5.55%
CCc1ccc(OCCNC(=O)c2ccc(S(=O)(=O)N(C)C)cc2)cc1 -4.78%
